{"source": "the supplement of paper PMC8728848", "binders": {"B1": {"name": "DC SIGN CRD (Homo sapiens), Q9NNX6 (protein)", "chain": "QPCPWEWTFFQGNCYFMSNSQRNWHDSITACKEVGAQLVVIKSAEEQNFLQLQSSRSNRFTWMGLSDLNQEGTWQWVDGSPLLPSFKQYWNRGEPNNVGEEDCAEFSGNGWNDDKCNLAKFWICKKSAWSHPQFEK"}}, "assay_in_all_cases": "glycan array binding signal (z-score within array); higher = stronger binding", "settings_in_all_cases": "glycan notation: IUPAC condensed, linker removed", "key": {"Gal3S(b1-4)Glc": {"molecular_target": "Gal3S(b1-4)Glc", "how_it_was_run": "(§1)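 Columns mapping to the same glycan were averaged after glycan names were converted to IUPAC-condensed notation. The data come from 3228 arrays in the Consortium for Functional Glycomics database, limited to those with an available protein sequence. Binding is reported as a within-array Z-score averaged across arrays of one protein sequence and across linkers.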"}, "Gal3S(b1-4)Glc6S": {"molecular_target": "Gal3S(b1-4)Glc6S", "how_it_was_run": "as §1"}, "Gal3S(b1-4)GlcNAc": {"molecular_target": "Gal3S(b1-4)GlcNAc", "how_it_was_run": "as §1"}, "Gal3S(b1-4)GlcNAc6S": {"molecular_target": "Gal3S(b1-4)GlcNAc6S", "how_it_was_run": "as §1"}, "Gal3S6S(b1-4)GlcNAc": {"molecular_target": "Gal3S6S(b1-4)GlcNAc", "how_it_was_run": "as §1"}, "Gal3S6S(b1-4)GlcNAc6S": {"molecular_target": "Gal3S6S(b1-4)GlcNAc6S", "how_it_was_run": "as §1"}, "Gal4S(b1-4)GlcNAc": {"molecular_target": "Gal4S(b1-4)GlcNAc", "how_it_was_run": "as §1"}, "Gal4S6S(b1-4)GlcNAc": {"molecular_target": "Gal4S6S(b1-4)GlcNAc", "how_it_was_run": "as §1"}, "Gal6S(b1-4)Glc": {"molecular_target": "Gal6S(b1-4)Glc", "how_it_was_run": "as §1"}, "Gal6S(b1-4)Glc6S": {"molecular_target": "Gal6S(b1-4)Glc6S", "how_it_was_run": "as §1"}, "Gal6S(b1-4)GlcNAc": {"molecular_target": "Gal6S(b1-4)GlcNAc", "how_it_was_run": "as §1"}, "GalNAc(a1-3)Gal": {"molecular_target": "GalNAc(a1-3)Gal", "how_it_was_run": "as §1"}, "GalNAc(a1-3)GalNAc": {"molecular_target": "GalNAc(a1-3)GalNAc", "how_it_was_run": "as §1"}, "[1]": {"molecular_target": "GalNAc(b1-3)Gal(a1-4)Gal(b1-4)GlcNAc", "how_it_was_run": "as §1"}, "GalNAc(b1-4)GlcNAc": {"molecular_target": "GalNAc(b1-4)GlcNAc", "how_it_was_run": "as §1"}, "Glc(a1-4)Glc": {"molecular_target": "Glc(a1-4)Glc", "how_it_was_run": "as §1"}, "Glc(a1-6)Glc(a1-6)Glc": {"molecular_target": "Glc(a1-6)Glc(a1-6)Glc", "how_it_was_run": "as §1"}, "Glc(b1-4)Glc": {"molecular_target": "Glc(b1-4)Glc", "how_it_was_run": "as §1"}, "Glc(b1-6)Glc": {"molecular_target": "Glc(b1-6)Glc", "how_it_was_run": "as §1"}, "GlcA(b1-3)Gal": {"molecular_target": "GlcA(b1-3)Gal", "how_it_was_run": "as §1"}, "GlcA(b1-6)Gal": {"molecular_target": "GlcA(b1-6)Gal", "how_it_was_run": "as §1"}, "[2]": {"molecular_target": "GlcNAc(a1-3)Gal(b1-4)GlcNAc", "how_it_was_run": "as §1"}, "[3]": {"molecular_target": "GlcNAc(a1-6)Gal(b1-4)GlcNAc", "how_it_was_run": "as §1"}, "[4]": {"molecular_target": "GlcNAc(b1-2)Gal(b1-3)GlcNAc", "how_it_was_run": "as §1"}, "[5]": {"molecular_target": "GlcNAc(b1-2)Man(a1-3)[GlcNAc(b1-2)Man(a1-6)]Man(b1-4)GlcNAc(b1-4)GlcNAc", "how_it_was_run": "as §1"}, "GlcNAc(b1-3)Gal": {"molecular_target": "GlcNAc(b1-3)Gal", "how_it_was_run": "as §1"}, "[6]": {"molecular_target": "GlcNAc(b1-3)Gal(b1-3)GalNAc", "how_it_was_run": "as §1"}, "GlcNAc(b1-3)Gal(b1-4)Glc": {"molecular_target": "GlcNAc(b1-3)Gal(b1-4)Glc", "how_it_was_run": "as §1"}, "[7]": {"molecular_target": "GlcNAc(b1-3)Gal(b1-4)GlcNAc", "how_it_was_run": "as §1"}, "[8]": {"molecular_target": "GlcNAc(b1-3)Gal(b1-4)GlcNAc(b1-3)Gal(b1-4)GlcNAc", "how_it_was_run": "as §1"}, "GlcNAc(b1-3)GalNAc": {"molecular_target": "GlcNAc(b1-3)GalNAc", "how_it_was_run": "as §1"}, "[9]": {"molecular_target": "GlcNAc(b1-3)[GlcNAc(b1-4)][GlcNAc(b1-6)]GlcNAc", "how_it_was_run": "as §1"}, "[10]": {"molecular_target": "GlcNAc(b1-3)[GlcNAc(b1-6)]Gal(b1-4)GlcNAc", "how_it_was_run": "as §1"}, "[11]": {"molecular_target": "GlcNAc(b1-3)[GlcNAc(b1-6)]GlcNAc", "how_it_was_run": "as §1"}, "[12]": {"molecular_target": "GlcNAc(b1-4)Gal(b1-4)GlcNAc", "how_it_was_run": "as §1"}, "[13]": {"molecular_target": "GlcNAc(b1-4)GlcNAc(b1-4)GlcNAc", "how_it_was_run": "as §1"}, "[14]": {"molecular_target": "GlcNAc(b1-4)GlcNAc(b1-4)GlcNAc(b1-4)GlcNAc(b1-4)GlcNAc", "how_it_was_run": "as §1"}}, "note": "Some of the results follow.", "data": [{"binder": "B1", "values": [{"measurement": "glycan array binding signal (z-score)", "setting": "Gal3S(b1-4)Glc", "value": 0.003}, {"measurement": "glycan array binding signal (z-score)", "setting": "Gal3S(b1-4)Glc6S", "value": -0.083}, {"measurement": "glycan array binding signal (z-score)", "setting": "Gal3S(b1-4)GlcNAc", "value": -0.388}, {"measurement": "glycan array binding signal (z-score)", "setting": "Gal3S(b1-4)GlcNAc6S", "value": 0.091}, {"measurement": "glycan array binding signal (z-score)", "setting": "Gal3S6S(b1-4)GlcNAc", "value": -0.35}, {"measurement": "glycan array binding signal (z-score)", "setting": "Gal3S6S(b1-4)GlcNAc6S", "value": -0.14}, {"measurement": "glycan array binding signal (z-score)", "setting": "Gal4S(b1-4)GlcNAc", "value": -0.361}, {"measurement": "glycan array binding signal (z-score)", "setting": "Gal4S6S(b1-4)GlcNAc", "value": -0.397}, {"measurement": "glycan array binding signal (z-score)", "setting": "Gal6S(b1-4)Glc", "value": -0.387}, {"measurement": "glycan array binding signal (z-score)", "setting": "Gal6S(b1-4)Glc6S", "value": -0.268}, {"measurement": "glycan array binding signal (z-score)", "setting": "Gal6S(b1-4)GlcNAc", "value": -0.39}, {"measurement": "glycan array binding signal (z-score)", "setting": "GalNAc(a1-3)Gal", "value": -0.373}, {"measurement": "glycan array binding signal (z-score)", "setting": "GalNAc(a1-3)GalNAc", "value": -0.293}, {"measurement": "glycan array binding signal (z-score)", "setting": "[1]", "value": -0.289}, {"measurement": "glycan array binding signal (z-score)", "setting": "GalNAc(b1-4)GlcNAc", "value": -0.367}, {"measurement": "glycan array binding signal (z-score)", "setting": "Glc(a1-4)Glc", "value": -0.391}, {"measurement": "glycan array binding signal (z-score)", "setting": "Glc(a1-6)Glc(a1-6)Glc", "value": -0.4}, {"measurement": "glycan array binding signal (z-score)", "setting": "Glc(b1-4)Glc", "value": -0.38}, {"measurement": "glycan array binding signal (z-score)", "setting": "Glc(b1-6)Glc", "value": -0.396}, {"measurement": "glycan array binding signal (z-score)", "setting": "GlcA(b1-3)Gal", "value": -0.383}, {"measurement": "glycan array binding signal (z-score)", "setting": "GlcA(b1-6)Gal", "value": -0.392}, {"measurement": "glycan array binding signal (z-score)", "setting": "[2]", "value": -0.29}, {"measurement": "glycan array binding signal (z-score)", "setting": "[3]", "value": -0.397}, {"measurement": "glycan array binding signal (z-score)", "setting": "[4]", "value": -0.382}, {"measurement": "glycan array binding signal (z-score)", "setting": "[5]", "value": 0.259}, {"measurement": "glycan array binding signal (z-score)", "setting": "GlcNAc(b1-3)Gal", "value": -0.36}, {"measurement": "glycan array binding signal (z-score)", "setting": "[6]", "value": -0.378}, {"measurement": "glycan array binding signal (z-score)", "setting": "GlcNAc(b1-3)Gal(b1-4)Glc", "value": -0.393}, {"measurement": "glycan array binding signal (z-score)", "setting": "[7]", "value": -0.092}, {"measurement": "glycan array binding signal (z-score)", "setting": "[8]", "value": 0.681}, {"measurement": "glycan array binding signal (z-score)", "setting": "GlcNAc(b1-3)GalNAc", "value": -0.366}, {"measurement": "glycan array binding signal (z-score)", "setting": "[9]", "value": -0.396}, {"measurement": "glycan array binding signal (z-score)", "setting": "[10]", "value": -0.403}, {"measurement": "glycan array binding signal (z-score)", "setting": "[11]", "value": -0.382}, {"measurement": "glycan array binding signal (z-score)", "setting": "[12]", "value": -0.286}, {"measurement": "glycan array binding signal (z-score)", "setting": "[13]", "value": -0.397}, {"measurement": "glycan array binding signal (z-score)", "setting": "[14]", "value": -0.36}]}]}
